Laboratory results from US20260217835A1 (published 2026).

biological target: T1, Fc fragment of human IgG1 below the hinge region containing no modification (SEQ ID NO: 62) (human, UniProt P01857 part only = IgG part); test: SEC peak area ratio after coexpression of full-length heavy chain, light chain and WT Fc fragment in Expi293F;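 also: peak area ratios come from chromatograms detected by UV absorbance at 215 nm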
T1 construct: Unmodified human IgG1 Fc fragment coexpressed with each full-length heavy chain and the light chain; it associates through its CH3 interface; also called WT-Fc fragment

Heteromultimer (%)	Binder
21.9%	Full-length heavy chain with T394H/F405G (SEQ ID NO: 391) with light chain SEQ ID NO: 61 (antibody, human IgG1, kappa, also called Sample No. 981) heavy: QVQLQESGPGLVRPSQTLSLTCTVSGYSITSDHAWSWVRQPPGRGLEWIGYISYSGITTYNPSLKSRVTMLRDTSKNQFSLRLSSVTAADTAVYYCARSLARTTAMDYWGQGSLVTVSSASTKGPSVFPLAPSSKSTSGGTAALGCLVKDYFPEPVTVSWNSGALTSGVHTFPAVLQSSGLYSLSSVVTVPSSSLGTQTYICNVNHKPSNTKVDKRV[no letters for human IgG1 Fc with T394H F405G (EU numbers)] light: DIQMTQSPSSLSASVGDRVTITCRASQDISSYLNWYQQKPGKAPKLLIYYTSRLHSGVPSRFSGSGSGTDFTFTISSLQPEDIATYYCQQGNTLPYTFGQGTKVEIKRTVAAPSVFIFPPSDEQLKSGTASVVCLLNNFYPREAKVQWKVDNALQSGNSQESVTEQDSKDSTYSLSSTLTLSKADYEKHKVYACEVTHQGLSSPVTKSFNRGEC
3.7%	Full-length heavy chain with T394F/F405V (SEQ ID NO: 390) with light chain SEQ ID NO: 61 (antibody, human IgG1, kappa, also called Sample No. 980) heavy: QVQLQESGPGLVRPSQTLSLTCTVSGYSITSDHAWSWVRQPPGRGLEWIGYISYSGITTYNPSLKSRVTMLRDTSKNQFSLRLSSVTAADTAVYYCARSLARTTAMDYWGQGSLVTVSSASTKGPSVFPLAPSSKSTSGGTAALGCLVKDYFPEPVTVSWNSGALTSGVHTFPAVLQSSGLYSLSSVVTVPSSSLGTQTYICNVNHKPSNTKVDKRV[no letters for human IgG1 Fc with T394F F405V (EU numbers)] light: DIQMTQSPSSLSASVGDRVTITCRASQDISSYLNWYQQKPGKAPKLLIYYTSRLHSGVPSRFSGSGSGTDFTFTISSLQPEDIATYYCQQGNTLPYTFGQGTKVEIKRTVAAPSVFIFPPSDEQLKSGTASVVCLLNNFYPREAKVQWKVDNALQSGNSQESVTEQDSKDSTYSLSSTLTLSKADYEKHKVYACEVTHQGLSSPVTKSFNRGEC
35.7%	Full-length heavy chain with T394H/F405T (SEQ ID NO: 393) with light chain SEQ ID NO: 61 (antibody, human IgG1, kappa, also called Sample No. 983) heavy: QVQLQESGPGLVRPSQTLSLTCTVSGYSITSDHAWSWVRQPPGRGLEWIGYISYSGITTYNPSLKSRVTMLRDTSKNQFSLRLSSVTAADTAVYYCARSLARTTAMDYWGQGSLVTVSSASTKGPSVFPLAPSSKSTSGGTAALGCLVKDYFPEPVTVSWNSGALTSGVHTFPAVLQSSGLYSLSSVVTVPSSSLGTQTYICNVNHKPSNTKVDKRV[no letters for human IgG1 Fc with T394H F405T (EU numbers)] light: DIQMTQSPSSLSASVGDRVTITCRASQDISSYLNWYQQKPGKAPKLLIYYTSRLHSGVPSRFSGSGSGTDFTFTISSLQPEDIATYYCQQGNTLPYTFGQGTKVEIKRTVAAPSVFIFPPSDEQLKSGTASVVCLLNNFYPREAKVQWKVDNALQSGNSQESVTEQDSKDSTYSLSSTLTLSKADYEKHKVYACEVTHQGLSSPVTKSFNRGEC
4.3%	Full-length heavy chain with T394W/F405C (SEQ ID NO: 396) with light chain SEQ ID NO: 61 (antibody, human IgG1, kappa, also called Sample No. 600; Sample No. 986) heavy: QVQLQESGPGLVRPSQTLSLTCTVSGYSITSDHAWSWVRQPPGRGLEWIGYISYSGITTYNPSLKSRVTMLRDTSKNQFSLRLSSVTAADTAVYYCARSLARTTAMDYWGQGSLVTVSSASTKGPSVFPLAPSSKSTSGGTAALGCLVKDYFPEPVTVSWNSGALTSGVHTFPAVLQSSGLYSLSSVVTVPSSSLGTQTYICNVNHKPSNTKVDKRV[no letters for human IgG1 Fc with T394W F405C (EU numbers)] light: DIQMTQSPSSLSASVGDRVTITCRASQDISSYLNWYQQKPGKAPKLLIYYTSRLHSGVPSRFSGSGSGTDFTFTISSLQPEDIATYYCQQGNTLPYTFGQGTKVEIKRTVAAPSVFIFPPSDEQLKSGTASVVCLLNNFYPREAKVQWKVDNALQSGNSQESVTEQDSKDSTYSLSSTLTLSKADYEKHKVYACEVTHQGLSSPVTKSFNRGEC
26.5%	Full-length heavy chain with T394H/F405S (SEQ ID NO: 392) with light chain SEQ ID NO: 61 (antibody, human IgG1, kappa, also called Sample No. 982) heavy: QVQLQESGPGLVRPSQTLSLTCTVSGYSITSDHAWSWVRQPPGRGLEWIGYISYSGITTYNPSLKSRVTMLRDTSKNQFSLRLSSVTAADTAVYYCARSLARTTAMDYWGQGSLVTVSSASTKGPSVFPLAPSSKSTSGGTAALGCLVKDYFPEPVTVSWNSGALTSGVHTFPAVLQSSGLYSLSSVVTVPSSSLGTQTYICNVNHKPSNTKVDKRV[no letters for human IgG1 Fc with T394H F405S (EU numbers)] light: DIQMTQSPSSLSASVGDRVTITCRASQDISSYLNWYQQKPGKAPKLLIYYTSRLHSGVPSRFSGSGSGTDFTFTISSLQPEDIATYYCQQGNTLPYTFGQGTKVEIKRTVAAPSVFIFPPSDEQLKSGTASVVCLLNNFYPREAKVQWKVDNALQSGNSQESVTEQDSKDSTYSLSSTLTLSKADYEKHKVYACEVTHQGLSSPVTKSFNRGEC
1.3%	Full-length heavy chain with T394W/F405V (SEQ ID NO: 397) with light chain SEQ ID NO: 61 (antibody, human IgG1, kappa, also called Sample No. 987) heavy: QVQLQESGPGLVRPSQTLSLTCTVSGYSITSDHAWSWVRQPPGRGLEWIGYISYSGITTYNPSLKSRVTMLRDTSKNQFSLRLSSVTAADTAVYYCARSLARTTAMDYWGQGSLVTVSSASTKGPSVFPLAPSSKSTSGGTAALGCLVKDYFPEPVTVSWNSGALTSGVHTFPAVLQSSGLYSLSSVVTVPSSSLGTQTYICNVNHKPSNTKVDKRV[no letters for human IgG1 Fc with T394W F405V (EU numbers)] light: DIQMTQSPSSLSASVGDRVTITCRASQDISSYLNWYQQKPGKAPKLLIYYTSRLHSGVPSRFSGSGSGTDFTFTISSLQPEDIATYYCQQGNTLPYTFGQGTKVEIKRTVAAPSVFIFPPSDEQLKSGTASVVCLLNNFYPREAKVQWKVDNALQSGNSQESVTEQDSKDSTYSLSSTLTLSKADYEKHKVYACEVTHQGLSSPVTKSFNRGEC

Second part, the binder before the results:

Binder	Heteromultimer (%)
Full-length heavy chain with T394H/F405C (SEQ ID NO: 394) with light chain SEQ ID NO: 61 (antibody, human IgG1, kappa, also called Sample No. 984) heavy: QVQLQESGPGLVRPSQTLSLTCTVSGYSITSDHAWSWVRQPPGRGLEWIGYISYSGITTYNPSLKSRVTMLRDTSKNQFSLRLSSVTAADTAVYYCARSLARTTAMDYWGQGSLVTVSSASTKGPSVFPLAPSSKSTSGGTAALGCLVKDYFPEPVTVSWNSGALTSGVHTFPAVLQSSGLYSLSSVVTVPSSSLGTQTYICNVNHKPSNTKVDKRV[no letters for human IgG1 Fc with T394H F405C (EU numbers)] light: DIQMTQSPSSLSASVGDRVTITCRASQDISSYLNWYQQKPGKAPKLLIYYTSRLHSGVPSRFSGSGSGTDFTFTISSLQPEDIATYYCQQGNTLPYTFGQGTKVEIKRTVAAPSVFIFPPSDEQLKSGTASVVCLLNNFYPREAKVQWKVDNALQSGNSQESVTEQDSKDSTYSLSSTLTLSKADYEKHKVYACEVTHQGLSSPVTKSFNRGEC	59.9%
Full-length heavy chain with T394F/F405T (SEQ ID NO: 401) with light chain SEQ ID NO: 61 (antibody, human IgG1, kappa, also called Sample No. 991) heavy: QVQLQESGPGLVRPSQTLSLTCTVSGYSITSDHAWSWVRQPPGRGLEWIGYISYSGITTYNPSLKSRVTMLRDTSKNQFSLRLSSVTAADTAVYYCARSLARTTAMDYWGQGSLVTVSSASTKGPSVFPLAPSSKSTSGGTAALGCLVKDYFPEPVTVSWNSGALTSGVHTFPAVLQSSGLYSLSSVVTVPSSSLGTQTYICNVNHKPSNTKVDKRV[no letters for human IgG1 Fc with T394F F405T (EU numbers)] light: DIQMTQSPSSLSASVGDRVTITCRASQDISSYLNWYQQKPGKAPKLLIYYTSRLHSGVPSRFSGSGSGTDFTFTISSLQPEDIATYYCQQGNTLPYTFGQGTKVEIKRTVAAPSVFIFPPSDEQLKSGTASVVCLLNNFYPREAKVQWKVDNALQSGNSQESVTEQDSKDSTYSLSSTLTLSKADYEKHKVYACEVTHQGLSSPVTKSFNRGEC	4%
Full-length heavy chain with T394F/F405C (SEQ ID NO: 389) with light chain SEQ ID NO: 61 (antibody, human IgG1, kappa, also called Sample No. 979) heavy: QVQLQESGPGLVRPSQTLSLTCTVSGYSITSDHAWSWVRQPPGRGLEWIGYISYSGITTYNPSLKSRVTMLRDTSKNQFSLRLSSVTAADTAVYYCARSLARTTAMDYWGQGSLVTVSSASTKGPSVFPLAPSSKSTSGGTAALGCLVKDYFPEPVTVSWNSGALTSGVHTFPAVLQSSGLYSLSSVVTVPSSSLGTQTYICNVNHKPSNTKVDKRV[no letters for human IgG1 Fc with T394F F405C (EU numbers)] light: DIQMTQSPSSLSASVGDRVTITCRASQDISSYLNWYQQKPGKAPKLLIYYTSRLHSGVPSRFSGSGSGTDFTFTISSLQPEDIATYYCQQGNTLPYTFGQGTKVEIKRTVAAPSVFIFPPSDEQLKSGTASVVCLLNNFYPREAKVQWKVDNALQSGNSQESVTEQDSKDSTYSLSSTLTLSKADYEKHKVYACEVTHQGLSSPVTKSFNRGEC	3.8%
Full-length heavy chain with T394C/F405C (SEQ ID NO: 395) with light chain SEQ ID NO: 61 (antibody, human IgG1, kappa, also called Sample No. 985) heavy: QVQLQESGPGLVRPSQTLSLTCTVSGYSITSDHAWSWVRQPPGRGLEWIGYISYSGITTYNPSLKSRVTMLRDTSKNQFSLRLSSVTAADTAVYYCARSLARTTAMDYWGQGSLVTVSSASTKGPSVFPLAPSSKSTSGGTAALGCLVKDYFPEPVTVSWNSGALTSGVHTFPAVLQSSGLYSLSSVVTVPSSSLGTQTYICNVNHKPSNTKVDKRV[no letters for human IgG1 Fc with T394C F405C (EU numbers)] light: DIQMTQSPSSLSASVGDRVTITCRASQDISSYLNWYQQKPGKAPKLLIYYTSRLHSGVPSRFSGSGSGTDFTFTISSLQPEDIATYYCQQGNTLPYTFGQGTKVEIKRTVAAPSVFIFPPSDEQLKSGTASVVCLLNNFYPREAKVQWKVDNALQSGNSQESVTEQDSKDSTYSLSSTLTLSKADYEKHKVYACEVTHQGLSSPVTKSFNRGEC	67.1%
Full-length heavy chain with T394F/F405S (SEQ ID NO: 400) with light chain SEQ ID NO: 61 (antibody, human IgG1, kappa, also called Sample No. 990) heavy: QVQLQESGPGLVRPSQTLSLTCTVSGYSITSDHAWSWVRQPPGRGLEWIGYISYSGITTYNPSLKSRVTMLRDTSKNQFSLRLSSVTAADTAVYYCARSLARTTAMDYWGQGSLVTVSSASTKGPSVFPLAPSSKSTSGGTAALGCLVKDYFPEPVTVSWNSGALTSGVHTFPAVLQSSGLYSLSSVVTVPSSSLGTQTYICNVNHKPSNTKVDKRV[no letters for human IgG1 Fc with T394F F405S (EU numbers)] light: DIQMTQSPSSLSASVGDRVTITCRASQDISSYLNWYQQKPGKAPKLLIYYTSRLHSGVPSRFSGSGSGTDFTFTISSLQPEDIATYYCQQGNTLPYTFGQGTKVEIKRTVAAPSVFIFPPSDEQLKSGTASVVCLLNNFYPREAKVQWKVDNALQSGNSQESVTEQDSKDSTYSLSSTLTLSKADYEKHKVYACEVTHQGLSSPVTKSFNRGEC	3.9%
